# The other results are listed elsewhere or left out.
# Key:
# Assay in all cases: glycan array binding signal (z-score within array); higher = stronger binding
# Conditions in all cases: glycan notation: IUPAC condensed, linker removed
# [1] = biological target: Fuc(a1-2)Gal6S(b1-3)GlcNAc6S
# Method in brief: (§1)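 Glycan array binding is given as a within-array Z-score, which can be read as non-binding when negative. The arrays, 3228 of them, came from the Consortium for Functional Glycomics database and were retained only where the protein sequence was available. Z-scores were averaged across arrays of the same protein sequence at different concentrations or buffers and across linkers.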
# Fuc(a1-2)Gal6S(b1-4)Glc = biological target: Fuc(a1-2)Gal6S(b1-4)Glc
# Method in brief: as §1
# [2] = biological target: Fuc(a1-2)Gal6S(b1-4)Glc6S
# Method in brief: as §1
# Fuc(a1-2)[Gal(a1-3)]Gal = biological target: Fuc(a1-2)[Gal(a1-3)]Gal
# Method in brief: as §1
# [3] = biological target: Fuc(a1-2)[Gal(a1-3)]Gal(b1-3)GalNAc
# Method in brief: as §1
# [4] = biological target: Fuc(a1-2)[Gal(a1-3)]Gal(b1-3)GalNAc(b1-3)Gal(a1-4)Gal(b1-4)Glc
# Method in brief: as §1
# [5] = biological target: Fuc(a1-2)[Gal(a1-3)]Gal(b1-3)GlcNAc
# Method in brief: as §1
# [6] = biological target: Fuc(a1-2)[Gal(a1-3)]Gal(b1-3)GlcNAc(b1-2)Man(a1-3)[Fuc(a1-2)[Gal(a1-3)]Gal(b1-3)GlcNAc(b1-2)Man(a1-6)]Man(b1-4)GlcNAc(b1-4)GlcNAc
# Method in brief: as §1
# [7] = biological target: Fuc(a1-2)[Gal(a1-3)]Gal(b1-3)GlcNAc(b1-2)Man(a1-3)[Fuc(a1-2)[Gal(a1-3)]Gal(b1-3)GlcNAc(b1-2)Man(a1-6)]Man(b1-4)GlcNAc(b1-4)[Fuc(a1-6)]GlcNAc
# Method in brief: as §1
# [8] = biological target: Fuc(a1-2)[Gal(a1-3)]Gal(b1-3)GlcNAc(b1-3)GalNAc
# Method in brief: as §1
# [9] = biological target: Fuc(a1-2)[Gal(a1-3)]Gal(b1-3)GlcNAc(b1-6)GalNAc
# Method in brief: as §1
# [10] = biological target: Fuc(a1-2)[Gal(a1-3)]Gal(b1-4)Glc
# Method in brief: as §1
# [11] = biological target: Fuc(a1-2)[Gal(a1-3)]Gal(b1-4)GlcNAc
# Method in brief: as §1
# [12] = biological target: Fuc(a1-2)[Gal(a1-3)]Gal(b1-4)GlcNAc(b1-2)Man
# Method in brief: as §1
# [13] = biological target: Fuc(a1-2)[Gal(a1-3)]Gal(b1-4)GlcNAc(b1-2)Man(a1-3)[Fuc(a1-2)[Gal(a1-3)]Gal(b1-4)GlcNAc(b1-2)Man(a1-6)]Man(b1-4)GlcNAc(b1-4)GlcNAc
# Method in brief: as §1
# [14] = biological target: Fuc(a1-2)[Gal(a1-3)]Gal(b1-4)GlcNAc(b1-2)Man(a1-3)[Fuc(a1-2)[Gal(a1-3)]Gal(b1-4)GlcNAc(b1-2)Man(a1-6)]Man(b1-4)GlcNAc(b1-4)[Fuc(a1-6)]GlcNAc
# Method in brief: as §1
# [15] = biological target: Fuc(a1-2)[Gal(a1-3)]Gal(b1-4)GlcNAc(b1-3)GalNAc
# Method in brief: as §1
# [16] = biological target: Fuc(a1-2)[Gal(a1-3)]Gal(b1-4)GlcNAc(b1-3)[Fuc(a1-2)[Gal(a1-3)]Gal(b1-4)GlcNAc(b1-6)]GalNAc
# Method in brief: as §1
# [17] = biological target: Fuc(a1-2)[Gal(a1-3)]Gal(b1-4)GlcNAc(b1-6)GalNAc
# Method in brief: as §1
# [18] = biological target: Fuc(a1-2)[Gal(a1-3)]Gal(b1-4)[Fuc(a1-3)]Glc
# Method in brief: as §1
# [19] = biological target: Fuc(a1-2)[Gal(a1-3)]Gal(b1-4)[Fuc(a1-3)]GlcNAc
# Method in brief: as §1
# [20] = biological target: Fuc(a1-2)[Gal(a1-3)]Gal(b1-4)[Fuc(a1-3)]GlcNAc(b1-3)GalNAc
# Method in brief: as §1
# [21] = biological target: Fuc(a1-2)[Gal(a1-4)]Gal(b1-4)GlcNAc
# Method in brief: as §1
# [22] = biological target: Fuc(a1-2)[GalNAc(a1-3)]Gal
# Method in brief: as §1
# [23] = biological target: Fuc(a1-2)[GalNAc(a1-3)]Gal(b1-3)GalNAc(a1-3)[Fuc(a1-2)]Gal(b1-4)GlcNAc
# Method in brief: as §1
# [24] = biological target: Fuc(a1-2)[GalNAc(a1-3)]Gal(b1-3)GalNAc(b1-3)Gal(a1-4)Gal(b1-4)Glc
# Method in brief: as §1
# [25] = biological target: Fuc(a1-2)[GalNAc(a1-3)]Gal(b1-3)GlcNAc
# Method in brief: as §1
# [26] = biological target: Fuc(a1-2)[GalNAc(a1-3)]Gal(b1-3)GlcNAc(b1-2)Man(a1-3)[Fuc(a1-2)[GalNAc(a1-3)]Gal(b1-3)GlcNAc(b1-2)Man(a1-6)]Man(b1-4)GlcNAc(b1-4)GlcNAc
# Method in brief: as §1
# [27] = biological target: Fuc(a1-2)[GalNAc(a1-3)]Gal(b1-3)GlcNAc(b1-2)Man(a1-3)[Fuc(a1-2)[GalNAc(a1-3)]Gal(b1-3)GlcNAc(b1-2)Man(a1-6)]Man(b1-4)GlcNAc(b1-4)[Fuc(a1-6)]GlcNAc
# Method in brief: as §1
# [28] = biological target: Fuc(a1-2)[GalNAc(a1-3)]Gal(b1-3)GlcNAc(b1-3)GalNAc
# Method in brief: as §1
# [29] = biological target: Fuc(a1-2)[GalNAc(a1-3)]Gal(b1-3)GlcNAc(b1-6)GalNAc
# Method in brief: as §1
# [30] = biological target: Fuc(a1-2)[GalNAc(a1-3)]Gal(b1-4)Glc
# Method in brief: as §1
# [31] = biological target: Fuc(a1-2)[GalNAc(a1-3)]Gal(b1-4)GlcNAc
# Method in brief: as §1
# [32] = biological target: Fuc(a1-2)[GalNAc(a1-3)]Gal(b1-4)GlcNAc(b1-2)Man
# Method in brief: as §1
# [33] = biological target: Fuc(a1-2)[GalNAc(a1-3)]Gal(b1-4)GlcNAc(b1-2)Man(a1-3)[Fuc(a1-2)[GalNAc(a1-3)]Gal(b1-4)GlcNAc(b1-2)Man(a1-6)]Man(b1-4)GlcNAc(b1-4)GlcNAc
# Method in brief: as §1
# [34] = biological target: Fuc(a1-2)[GalNAc(a1-3)]Gal(b1-4)GlcNAc(b1-2)Man(a1-3)[Fuc(a1-2)[GalNAc(a1-3)]Gal(b1-4)GlcNAc(b1-2)Man(a1-6)]Man(b1-4)GlcNAc(b1-4)[Fuc(a1-6)]GlcNAc
# Method in brief: as §1
# [35] = biological target: Fuc(a1-2)[GalNAc(a1-3)]Gal(b1-4)GlcNAc(b1-3)Gal(b1-4)GlcNAc
# Method in brief: as §1
# [36] = biological target: Fuc(a1-2)[GalNAc(a1-3)]Gal(b1-4)GlcNAc(b1-3)Gal(b1-4)GlcNAc(b1-3)Gal(b1-4)GlcNAc
# Method in brief: as §1
# [37] = biological target: Fuc(a1-2)[GalNAc(a1-3)]Gal(b1-4)GlcNAc(b1-3)GalNAc
# Method in brief: as §1
# [38] = biological target: Fuc(a1-2)[GalNAc(a1-3)]Gal(b1-4)GlcNAc(b1-3)[Fuc(a1-2)[GalNAc(a1-3)]Gal(b1-4)GlcNAc(b1-6)]GalNAc
# Method in brief: as §1
# [39] = biological target: Fuc(a1-2)[GalNAc(a1-3)]Gal(b1-4)GlcNAc(b1-6)GalNAc
# Method in brief: as §1
# [40] = biological target: Fuc(a1-2)[GalNAc(a1-3)]Gal(b1-4)[Fuc(a1-3)]GlcNAc
# Method in brief: as §1
# [41] = biological target: Fuc(a1-2)[GalNAc(a1-3)]Gal(b1-4)[Fuc(a1-3)]GlcNAc(b1-3)GalNAc
# Method in brief: as §1
# [42] = biological target: Fuc(a1-2)[GalNAc(a1-4)]Gal(b1-4)GlcNAc
# Method in brief: as §1
# [43] = biological target: Fuc(a1-2)[GalNAc(b1-3)]Gal
# Method in brief: as §1
binder,measurement,setting,value
PfulAvr4 2 (Pseudocercospora fuligena) (protein) HHHHHHDYKDDDDKAKPIKPFACPPKDFTTTKCQGPVDCLYANPLSCLGYIQCVCDDDACSTATPYAKSCPTGLAWVEKLKRCDGIKKSACPKKMYEGS,glycan array binding signal (z-score),[1],0.908
same,glycan array binding signal (z-score),Fuc(a1-2)Gal6S(b1-4)Glc,-0.291
same,glycan array binding signal (z-score),[2],-0.237
same,glycan array binding signal (z-score),Fuc(a1-2)[Gal(a1-3)]Gal,-0.18
same,glycan array binding signal (z-score),[3],-0.302
same,glycan array binding signal (z-score),[4],-0.378
same,glycan array binding signal (z-score),[5],-0.268
same,glycan array binding signal (z-score),[6],-0.082
same,glycan array binding signal (z-score),[7],1.76
same,glycan array binding signal (z-score),[8],-0.156
same,glycan array binding signal (z-score),[9],-0.076
same,glycan array binding signal (z-score),[10],-0.269
same,glycan array binding signal (z-score),[11],-0.336
same,glycan array binding signal (z-score),[12],-0.046
same,glycan array binding signal (z-score),[13],-0.273
same,glycan array binding signal (z-score),[14],0.493
same,glycan array binding signal (z-score),[15],-0.381
same,glycan array binding signal (z-score),[16],0.503
same,glycan array binding signal (z-score),[17],-0.178
same,glycan array binding signal (z-score),[18],-0.275
same,glycan array binding signal (z-score),[19],-0.192
same,glycan array binding signal (z-score),[20],-0.19
same,glycan array binding signal (z-score),[21],-0.039
same,glycan array binding signal (z-score),[22],-0.343
same,glycan array binding signal (z-score),[23],3.28
same,glycan array binding signal (z-score),[24],0.318
same,glycan array binding signal (z-score),[25],0.123
same,glycan array binding signal (z-score),[26],0.356
same,glycan array binding signal (z-score),[27],-0.42
same,glycan array binding signal (z-score),[28],0.502
same,glycan array binding signal (z-score),[29],-0.429
same,glycan array binding signal (z-score),[30],-0.327
same,glycan array binding signal (z-score),[31],-0.313
same,glycan array binding signal (z-score),[32],-0.308
same,glycan array binding signal (z-score),[33],-0.305
same,glycan array binding signal (z-score),[34],0.829
same,glycan array binding signal (z-score),[35],-0.368
same,glycan array binding signal (z-score),[36],-0.243
same,glycan array binding signal (z-score),[37],-0.273
same,glycan array binding signal (z-score),[38],-0.307
same,glycan array binding signal (z-score),[39],-0.376
same,glycan array binding signal (z-score),[40],-0.088
same,glycan array binding signal (z-score),[41],-0.227
same,glycan array binding signal (z-score),[42],-0.363
same,glycan array binding signal (z-score),[43],-0.224

# Reference: the supplement of paper PMC8728848
